The labels stand for the following.
T1: UNK ZnF1-3 (human, UniProt Q9C0B0 31-174)
T1 sequence: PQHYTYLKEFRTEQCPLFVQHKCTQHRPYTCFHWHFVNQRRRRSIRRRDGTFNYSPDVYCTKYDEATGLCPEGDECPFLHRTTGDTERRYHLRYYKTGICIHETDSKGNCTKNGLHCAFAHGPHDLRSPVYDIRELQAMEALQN

B1: chr13:42874254:42874255:+_ENSG00000023516_ENST00000025301|hu_mus|motif|central (ssRNA)
RNA: GGGAGUUCUACAGUCCGACGAUCUUCACUAGUAUCUGUUUGGCAAAACCAUUCAGCAGGAGUACAGCUUCCAGGAGGACGGAAAGCUGAGGUUCGAAUAGGGCUGAACAAGCCACUAUCCUCUGAUGUCAUCACCGGACGAGGCAACAGAGGAUUGAGCAUCA
B2: chr3:57569700:57569701:-_ENSG00000168374_ENST00000303436|hu_mus|FALSE|FALSE (ssRNA)
RNA: GGGAGUUCUACAGUCCGACGAUCCACAAAAAUGAGACCCUGGGUAUUCUGGAAGUAAUGCCUCCAGAGAGGCCUAAUUUUAUCUUGACCACCAACAUCCCAUACUGUGAAACAAAUGUUCUUAUAUUCUACUGUUUCCACAUUCAACAGAGGAUUGAGCAUCA
B3: chr14:49642940:49642941:-_ENSMUSG00000061244_ENSMUST00000162175|mus_hu|FALSE|FALSE (ssRNA)
RNA: GGGAGUUCUACAGUCCGACGAUCCAAAGCAUAAUCAAUAUGCUCAAUACAUAAAAAUUCCACAAGAAUGGUAAAAAUUCUGAAGGCAUUCCUUGGUAAGUCAGAAGGAUCAGAGAGCCUAUGACAUCUUUCAAAGGCUUGUUUCAACAGAGGAUUGAGCAUCA
B4: chr2:47387792:47387793:-_ENSG00000143933_ENST00000272298|hu_hu|hu_hu_hu_mus_True|1_28 (ssRNA)
RNA: GGGAGUUCUACAGUCCGACGAUCUAAGGACAAUGACAGUAAGAUAAGGGAAGAAAACAUGGAGGAAUGAAGUCCUAAUUACUAUACAUGCAUAUUUUUUGACAGUAAGGGAGAAACACCUUUUACAGAUAAGUUACACAAAGACAACAGAGGAUUGAGCAUCA
B5: 93480285_93480405_1884_3pUTR_ENSMUSG00000056608_ENSMUST00000048665|mouse|control|control (ssRNA)
RNA: GGGAGUUCUACAGUCCGACGAUCCCUUUUCUUGCUUGCUUUCUGAUUCCACCCUUUUUCGUGGCUUCUUCUCAGACAUGACCCUCACCUGGGUAUUCUGCAGCUUAGUGUAUGUCCCAGAACCAUCACUCUUCUUGGAAGAUGCAACAGAGGAUUGAGCAUCA
B6: 70732754_70734444_1896_3pUTR_ENSMUSG00000020817_ENSMUST00000076270|mouse|control|control (ssRNA)
RNA: GGGAGUUCUACAGUCCGACGAUCGCUUGAGGAAGUCCUCCAGCUCCUGCUUCUCUUUCAUCGUCUUCUCAAGCUGGUCAUUAGCUUGCCUGAGCAUUAACUGCAGUUUUUUCACCUGGUCUCUUGUUUCAGCUUCCUGAAUCUCAACAGAGGAUUGAGCAUCA
B7: chr1:39494447:39494448:+_ENSG00000168653_ENST00000372967|hu_mus|hu_hu_hu_mus_False|68_108 (ssRNA)
RNA: GGGAGUUCUACAGUCCGACGAUCGCAUCGACCAGCCUUCUUAUAGGGCUGUUCUGCGCUUAGGAACGUCAACCAUCGGUCCAGGCUGAUGCCCAGCUUUUUCUGUAUGUCAAGGAAAGGCAUGGCUCUGCAGUGCCCUUGUCACAACAGAGGAUUGAGCAUCA
B8: 167247438_167248962_1453_CDS_ENSMUSG00000040836_ENSMUST00000111450|mouse|control|control (ssRNA)
RNA: GGGAGUUCUACAGUCCGACGAUCGCUCCUCCUCUUGGGUGGGCAAGUGCAGUGCUGGGGAGGGUUGUCCUCAGAAGUGCCAUCUUCCAACAGCAUCACAUCCGUCCCUGAAUCCUGAGAGUAGCUGAAGCCUGUGUCACCGGUCAACAGAGGAUUGAGCAUCA
B9: chr3:128516864:128516865:+_ENSG00000075785_ENST00000265062|hu_hu|motif|central (ssRNA)
RNA: GGGAGUUCUACAGUCCGACGAUCCUGCAUUGUGACUAGCCUGUCAUCCACCAUCACCUCCUUGGUCAGAAAGUCAGCUCCGGUUGUGGCUUUGUACUGAUUGCUGAAUUUCUUAUUCACAUACUGGUUCAUGAGUGAUGUCUUCAACAGAGGAUUGAGCAUCA
B10: 108930381_108930501_2154_3pUTR_ENSMUSG00000033623_ENSMUST00000046975|mouse|control|control (ssRNA)
RNA: GGGAGUUCUACAGUCCGACGAUCUGCUAGUGUCUUAUUCAUUCUCUAACCUAACAAAGCAAUAAAUUGUAUGUGAGAAAGGUGUGUGUGUUAACAAAUACUAUCCUCUCUAUGACUGAAAAAGCCACUUCUGCUGAAGCGAGCCAACAGAGGAUUGAGCAUCA
B11: chrX:153990882:153990883:-_ENSMUSG00000046873_ENSMUST00000058098|mus_hu|FALSE|FALSE (ssRNA)
RNA: GGGAGUUCUACAGUCCGACGAUCAGCUCCUGAGAGGGAAAUCAGGUACUUGACAAAUGUCUCCACAACCACUGGCAGAUCUAUGCUUAGAAAGUUAAAACGUGGGAUAAAACUGGUGAUGCUCACUGUGUAGUGAAGAUGCAGCAACAGAGGAUUGAGCAUCA
B12: 82825173_82825293_2862_3pUTR_ENSMUSG00000042724_ENSMUST00000035987|mouse|control|control (ssRNA)
RNA: GGGAGUUCUACAGUCCGACGAUCGGGCUGUGAGGGUGACAUGGGUGGGAGUCAAGGACUGGUUGGGGUCUCUCUUGAAGCGCUCCACUCGGACAUUAACCAGGGGGUUGUGGGUACAUUGGGUUAGGGGUGGAGCUUCAACUGCAACAGAGGAUUGAGCAUCA
B13: 38037259_38046042_748_3pUTR_ENSG00000065882_ENST00000510573|human|control|control (ssRNA)
RNA: GGGAGUUCUACAGUCCGACGAUCAAAUCGAGUGGCACUGGGUGGUAAUUCACUUCCAAUAUUCUCUGCUGCCAUCUGCGAUGUCUGCUUCAUCUCCCCAAUAUGGAUGUGUUCUUUCUGUUUCUCUUCAUAUAAACAUCUCAGCAACAGAGGAUUGAGCAUCA
B14: chr1:41461666:41461667:+_ENSG00000171793_ENST00000372621|hu_hu|FALSE|FALSE (ssRNA)
RNA: GGGAGUUCUACAGUCCGACGAUCCCAUUUCAUCAGCAUUUUUCUUGGCUGCCUCUCAAUAGGAAGGUCAAGUCUUCGAAGAAAAUAAUCUACAACCCCUUGCUCCUCUAACAACAAGGGGACUCGGUAGAUGGAUGAGACAUCCAACAGAGGAUUGAGCAUCA
B15: chr2:42509997:42509998:+_ENSG00000143924_ENST00000318522|hu_mus|hu_hu_hu_mus_True|1_38 (ssRNA)
RNA: GGGAGUUCUACAGUCCGACGAUCUCGCUGAGUCCUCUCCUCAUAAUUAAACAGGACUACCACUGAGGCGAUAAAAUAAACUAUCUCCCCUGUGGGAAGAAGGUAAACAUUCGCUCUACAGUCCUUUCCUCGAUAACCAUAUGCCAACAGAGGAUUGAGCAUCA
B16: chr14:53324496:53324497:-_ENSG00000073712_ENST00000341590|hu_mus|motif|central (ssRNA)
RNA: GGGAGUUCUACAGUCCGACGAUCUAUUGUAACACAAAGGCUGCAUAUCUUAGGCAGAUAGUGAGUAUGCUGGUGAAUACGGAGAGUACUGUAAUACAGUUUGGUGUAAAACUAAACACAAAACAAUGUACAGCAUGCUUACUCCAACAGAGGAUUGAGCAUCA
B17: chr10:36854569:36854570:-_ENSMUSG00000069662_ENSMUST00000092584|mus_mus|FALSE|FALSE (ssRNA)
RNA: GGGAGUUCUACAGUCCGACGAUCAAACCACAGCCAAAUGUACUUUUGAUGGCAUGCAAGGCCUUCCUAAAAAAUUAAUCUAAGACCUAGAAGUCAGCCUCAGAACAUAAAAAAACACAACAAAUUUGUACAUUUUAUUCACAUCAACAGAGGAUUGAGCAUCA
B18: chr6:41757443:41757444:+_ENSG00000214736_ENST00000398881|hu_hu|motif|central (ssRNA)
RNA: GGGAGUUCUACAGUCCGACGAUCAGCCUGUCUGCUGACCAGAGAAUGGAAUUCUGCGUGGACUCAAGGAACAAAAGGAAACGGGGCAGGGAAGGGGAAGAAAAGUGCCCAUCUGAAUCAAACUUCAGCUGCCAUCAGGGCACACAACAGAGGAUUGAGCAUCA
B19: chrX:69798090:69798091:-_ENSMUSG00000031343_ENSMUST00000055966|mus_mus|mus_mus_mus_hu_False|18_58 (ssRNA)
RNA: GGGAGUUCUACAGUCCGACGAUCAAGUCCCCGGGUUCUUGUCGUCUUGAUUCCCCUUGACCAGUGGUUCCAGGGAGAAUACUAAUCAGGAAAAGAAUCCCAAGGCUGGUCAUGUAAAAGUGCCACAUUUGUGUGAUUAUCAUCCAACAGAGGAUUGAGCAUCA
B20: chr5:21252845:21252846:+_ENSMUSG00000029017_ENSMUST00000030882|mus_hu|motif|central (ssRNA)
RNA: GGGAGUUCUACAGUCCGACGAUCUGUUUGCAACCAUGAGACAGAUUGUAUCUGGAUGUGCCCAACCAACAGCUUCAACAGCGGUUGCAAGGUGCGCCAAAGGCAUCUUGUCAUCCCUCACACGAAUCUCACUUCCUGUGAAUUCAACAGAGGAUUGAGCAUCA
B21: 7402660_7402780_1980_CDS_ENSG00000181222_ENST00000322644|human|control|control (ssRNA)
RNA: GGGAGUUCUACAGUCCGACGAUCUUUGCGCACUGCUGUGAGUGUGUCCUGCACAAUACCCAUGACAGGCCGAUUGCUCUGGGGGGUGACAAUCAUGCGAGGAACCAUGGCCAGCUCCUGGAUCUCUGCUCGCGUCUCCAGAGACAACAGAGGAUUGAGCAUCA
B22: 33326405_33326857_2386_CDS_ENSG00000005156_ENST00000378526|human|control|control (ssRNA)
RNA: GGGAGUUCUACAGUCCGACGAUCGAAGUCAGGAUAGUAGAUCUUGUUGACCUUCAACCAGCUGGGUAUUUUGCUGGGGUCCUUGCUGAUCUUCACCAUGUCUAGUUCAUUCUGCAGGCGGGCAAGCGUGGCAUCAUCAUGGCCCAACAGAGGAUUGAGCAUCA

This is one part of the list.

For this assay, the target named is T1, UNK ZnF1-3. Description: nsRBNS (natural sequence RNA bind-n-seq); RBNS binding buffer (assumed for nsRBNS): 25 mM Tris pH 7.5, 150 mM KCl, 3 mM MgCl2, 0.01% Triton X-100, 500 ug/ml BSA, 20 U/ml SUPERase-In, 4 C; UNK is unkempt and MSI1 is Musashi-1; names of the RNAs are library labels; protein concentration not given here; high values mean tight binding.
In turn, B1 yielded a binding signal of 1.18 enrichment R.
In turn, B2 came in with a binding signal of 1.21 enrichment R.
Then B3, with 0.354 enrichment R; and B4, with 1.95 enrichment R; and B5, with 0.409 enrichment R.
Then B6, with 0.41 enrichment R.
B7 displayed a binding signal of 0.719 enrichment R.
Then B8, with 1.02 enrichment R.
The same measure for B9: 0.54 enrichment R.
The same measure for B10: 1.34 enrichment R; for B11: 1.71 enrichment R.
Molecule B12 gave a binding signal of 1.43 enrichment R.
Then B13, with 0.63 enrichment R.
Then B14, with 1.07 enrichment R; and B15, with 1.11 enrichment R.
Then B16, with 0.819 enrichment R.
For the molecule B17, the binding signal was found to be 1.69 enrichment R.
Regarding B18, the binding signal turned out to be 1.8 enrichment R.
Then B19, with 0.609 enrichment R; and B20, with 0.73 enrichment R.
As for B21, the binding signal amounted to 0.652 enrichment R.
The molecule B22 registered a binding signal of 0.632 enrichment R.

Values taken from publication PMC12136788.
